Laboratory results reported in PubChem BioAssay AID652104 (National Center for Advancing Translational Sciences (NCATS), 2013).
The campaign covered roughly 410,000 compounds. About 7,200 (1.8%) were called active. This list was built around the results that the source calls inconclusive (neither active nor inactive); the mix of calls is not that of the screen. Calls come from the whole dose curve; as a rule, active = well fitted activation curve with a large enough effect; inconclusive = small, poorly fitted or top-dose-only effect, or another doubt; inactive = no such curve, though single readings can be large or run the other way. No potency is given beside an inconclusive call; the fits are too rough.

Experiment: qHTS of TDP-43 Inhibitors; note: nearly all actives have a fitted effect of over 50% in size; for growth rescue (activation): % of control where 0% means no effect
Conditions: TDP-43 expressing yeast growth rescue, BacTiter-Glo, 24 h; growth rescue (activation): at 46.1 µM (top of the series) unless noted
Method in brief: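 Cell-based yeast growth screen: TDP-43 expression induced in galactose, inoculum OD600=0.02 after raffinose pregrowth to mid-log. Read-out BacTiter-Glo luminescence at 24 hr, 30 deg C; inhibition of toxicity seen as signal increase.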
Potency is the fitted concentration of half-maximal effect; tags give direction and shape of the fitted curve.

Row | Structure (SMILES) | growth rescue (activation) | Potency
1 | COCCNc1ncnc2c1cnn2-c1cc(Cl)ccc1C | inactive: 26.5% | –
2 | Cc1nc(NCCN2CCOCC2)c2nnn(Cc3c(F)cccc3Cl)c2n1 | – | inconclusive [activator, single point]
3 | Fc1ccc(-c2nnc3ccccn23)cc1 | – | inconclusive [activator, partial curve]
4 | Cc1ccccc1-c1nc(C#N)c(N2CCCCC2)o1 | – | inconclusive [activator, single point]
5 | Cn1ccc2c(-c3cccc(C=O)c3)cc3c(c21)C1CCC3C1 (stereo not drawn) | – | inconclusive [activator, partial curve]
6 | CCCCCCCOc1ccc(C2CC(=O)N(C)C2=O)cc1 (stereo not drawn) | – | inconclusive [activator, partial curve]
7 | Cc1c(CC(=O)N2CCCCC2)c(=O)oc2cc3occ(C(C)(C)C)c3cc12 | inactive: 13.5% | –
8 | O=C(O)c1ccc(-n2nc(C(F)(F)F)c3c2CCCC3)cc1 | – | active: 15.8 µM
9 | CCC1=Nc2cc(C(=O)NCc3ccccc3OC)ccc2Sc2ccc(Cl)cc21 | – | inconclusive [activator, partial curve]
10 | O=C(Nc1ccccc1)c1cccc(S(=O)(=O)Oc2ccc([N+](=O)[O-])cc2)c1 | – | inconclusive [activator, partial curve]
11 | COc1cccc(-c2nc3ccc(O)cc3c(=O)o2)c1 | – | inconclusive [activator, single point]
12 | COc1ccc(N2C(=O)CSC23C(=O)N(Cc2ccccc2F)c2ccccc23)cc1Cl (stereo not drawn) | – | inconclusive [activator, single point]
13 | Cc1cccc(NC(=S)N2N=CCC2c2ccccc2)c1 (stereo not drawn) | – | inconclusive [activator, single point]
14 | O=S(=O)(NCc1ccccc1Cl)c1ccc(-c2cnc(C3CC3)o2)cc1 | – | active: 22.4 µM
15 | CCOC(=O)C1CCN(C(=O)Cn2c(-c3cccs3)cc3cc(Cl)ccc32)CC1 | inactive: 16.8% | –
16 | O=C(c1cc(COc2ccc(F)cc2Cl)on1)N1CCCCCC1 | – | inconclusive [activator, partial curve]
17 | Cc1ccccc1OCC(=O)NCCS(=O)(=O)N1CCN(c2ccc(F)cc2)CC1 | inconclusive: 33.3% [activator] | –
18 | CSc1ccccc1NC(=O)CN(C)CC(=O)Nc1ccc(Cl)cc1[N+](=O)[O-] | – | inconclusive [activator, single point]
19 | O=C(NCc1ccc(Cl)cc1)c1ccc(NC(=O)N2CC3CCCN3c3ccccc32)cc1 (stereo not drawn) | – | inconclusive [activator, partial curve]
20 | Fc1ccc(N2CCN(c3cnc4ccccc4n3)CC2)cc1 | – | inconclusive [activator, full curve, poor fit]
21 | COC(=O)C1=C(N)OC2=C(C(=O)CCC2)C1c1cccs1 (stereo not drawn) | inactive: 2.9% | –
22 | COC(=O)N/N=C/c1cc(C)n(-c2cccc3ccccc23)c1C | – | inconclusive [activator, partial curve]

Row | Structure (SMILES) | growth rescue (activation) | Potency
23 | CC(CCc1ccccc1)NC(=O)c1nnc(Cc2ccc(F)cc2)o1 (stereo not drawn) | – | inconclusive [activator, partial curve]
24 | COc1ccc(N2CCN(c3ncnc4c3cnn4-c3ccc(C)c(Cl)c3)CC2)cc1 | – | inconclusive [activator, full curve, poor fit]
25 | Fc1ccccc1N1CCN(c2ncnc3c2nc2n3CCCCC2)CC1 | – | inconclusive [activator, partial curve]
26 | N#Cc1c(NCCCO)nc(-c2ccccc2)c2c1CCCC2 | – | inconclusive [activator, single point]
27 | CCOc1ccc(NC(=O)CC2C(=O)N(c3ccc(F)cc3)C(=O)N2CCc2sccc2C)cc1 (stereo not drawn) | inactive: 19% | –
28 | CCC(=O)N1CCc2cc(Br)cc(S(=O)(=O)CCC(=O)N(C)c3cccc(C)c3)c21 | – | inconclusive [activator, partial curve]
29 | CC(=O)N(C)Cc1ccc(C(=O)CCl)cc1 | – | inconclusive [activator, full curve]
30 | CCOC(=O)C1C(C(=O)OC)=C(c2ccc(F)cc2)c2ccccc2N1S(=O)(=O)C(F)(F)F (stereo not drawn) | – | inconclusive [activator, partial curve]
31 | CCN(CC)CCCNC(=O)CSc1nc2nc(C)c(Cc3ccccc3C)c(C)n2n1 | inactive: 6.44% | –
32 | CC(=O)c1ccc(OCc2cc(C(=O)N(C)Cc3cc(C)no3)no2)cc1 | – | inconclusive [activator, partial curve]
33 | O=C(O)Cn1nc(-c2ccccc2)cc1-c1ccccc1 | inactive: 18.5% | –
34 | COc1ccc(-c2nc(CS(=O)CC(=O)NCCCN3CC(C)CC(C)C3)c(C)o2)cc1OC (stereo not drawn) | – | inconclusive [activator, partial curve, poor fit]
35 | COc1ccc(CCNC(=O)c2nnn(-c3ccccc3OC)c2N)cc1OC | – | inconclusive [activator, full curve, poor fit]
36 | Cc1ccc(S(=O)(=O)N2CCC(C(=O)NCCC3=CCCCC3)CC2)c(C)c1 | – | inconclusive [activator, partial curve]
37 | COc1ccc(CC(=O)N2CCN(c3cccc(C)c3C)CC2)cc1 | – | active: 11.2 µM
38 | COCCNc1oc(/C=C/c2ccccc2)nc1C#N | – | inconclusive [activator, single point]
39 | Cc1c(C(=O)Nc2ccc3oc(-c4cccnc4)nc3c2)oc2ccccc12 | inactive: 0% | –
40 | CN(CC(=O)Nc1cccc(F)c1)C(=O)C1CCN(S(=O)(=O)c2ccc3c(c2)OCCO3)CC1 | – | inconclusive [activator, partial curve, poor fit]
41 | Cc1ccsc1C(=O)N1CCC1(C)C(=O)NCc1cccc2ccccc12 (stereo not drawn) | – | inconclusive [activator, partial curve]
42 | CCOC(=O)N1CCN(C(=O)c2cc(COc3cccc(C(C)=O)c3)on2)CC1 | – | inconclusive [activator, partial curve]
43 | Cc1nc2nc(C)c(NS(=O)(=O)c3ccc(F)cc3)c(=O)n2[nH]1 | inactive: 17.4% | –
